The source of these data is paper PMC10651785 (Blood, 2022).

This data set concerns the molecule itself. Put plainly: FRET or BRET.

B1: NLuc–STAT3–FlAsH (NSF) Y640F (natural protein)
chain: not shown
modifications: FlAsH (fluorescein arsenical short hairpin) probe on the tetracysteine motif
For B1, the “reduction in the ability to form homodimers (BRET) compared with WT” value is about 50%.

B2: NLuc–STAT3–FlAsH (NSF) K658Y (natural protein)
chain: not shown
modifications: FlAsH (fluorescein arsenical short hairpin) probe on the tetracysteine motif
As for B2, the “reduction in the ability to form homodimers (BRET) compared with WT” value is about 50%.
